Experimental findings from a collection of fitness landscapes (doi:10.1126/science.1257360) are described below.

The list shows a part of the results.

The labels stand for the following.
B1: PhoQ; a variant is named by its letters at X, in order, P23837 (parent)
chain: MKKLLRLFFPLSLRVRFLLATAAVVLVLSLAYGMVALIGYSVSFDKTTFRLLRGESNLFYTLAKWENNKLHVELPENIDKQSPTMTLIYDENGQLLWAQRDVPWLMKMIQPDWLKSNGFHEIEADVNDTSLLLSGDHSIQQQLQEVREDDDDAEMTHSVAVNVYPATSRMPKLTIVVVDTIPVELKSSYMVWSWFIYVLSANLLLVIPLLWVAAWWSLRPIEALAKEVRELEEHNRELLNPATTRELTSLVRNLNRLLKSERERYDKYRTTLTDLTHSLKTPLXXLQXXLRSLRSEKMSVSDAEPVMLEQISRISQQIGYYLHRASMRGGTLLSRELHPVAPLLDNLTSALNKVYQRKGVNISLDISPEISFVGEQNDFVEVMGNVLDNACKYCLEFVEISARQTDEHLYIVVEDDGPGIPLSKREVIFDRGQRVDTLRPGQGVGLAVAREITEQYEGKIVAGESMLGGARMEVIFGRQHSAPKDE

The variants in the assay derive from B1. In words: enrichment ratio after two sorts for PhoP signalling (ratio (wild type AVST 3.29)); higher = more functional. The settings on record: with PhoP (E. coli).
For the variant FQDR, the enrichment ratio was at most 0.25. On to EMPI, for which the enrichment ratio is at most 0.25.

As for TLDT, the enrichment ratio is at most 0.25.

On to WQRP, for which the enrichment ratio is at most 0.25.

With EGII, the enrichment ratio was at most 0.25.

As for PMWN, the enrichment ratio is at most 0.25. As for DTQY, the enrichment ratio is at most 0.25. In the case of RQNG it was at most 0.25; in that of IVIE, at most 0.25. On to QGLW, for which the enrichment ratio was at most 0.25. Regarding IKCQ, the enrichment ratio was at most 0.25. In the case of SHNE it was at most 0.25; in that of WDCD, at most 0.25; in that of AIMR, 16.6. With KCPN, the enrichment ratio is at most 0.25. Regarding IRTC, the enrichment ratio was found to be 0.402. Consider VCND, for which the enrichment ratio was at most 0.25. On to WMSY, for which the enrichment ratio was at most 0.25. For STKE, the enrichment ratio is at most 0.25. On to HCWK, for which the enrichment ratio is at most 0.25. With NMFN, the enrichment ratio was at most 0.25.

On to APMS, for which the enrichment ratio is at most 0.25.

As to KENN, the enrichment ratio is at most 0.25. In the case of LCFD, the enrichment ratio was at most 0.25. Consider YHVC, for which the enrichment ratio is at most 0.25. Consider GPIC, for which the enrichment ratio is at most 0.25. Consider CYMR, for which the enrichment ratio is at most 0.25. On to YSEG, for which the enrichment ratio was at most 0.25. In the case of MYVY, the enrichment ratio was at most 0.25. With GSAW, the enrichment ratio was at most 0.25. Consider MQIG, for which the enrichment ratio is at most 0.25. Turning to LMWW, the enrichment ratio is at most 0.25. On to FWGS, for which the enrichment ratio was at most 0.25.

As to AHGK, the enrichment ratio was at most 0.25. As for GKEL, the enrichment ratio is at most 0.25.

Turning to HSAH, the enrichment ratio is at most 0.25. Consider ITVY, for which the enrichment ratio was at most 0.25. As for RFPH, the enrichment ratio is at most 0.25. ARNK: the enrichment ratio is at most 0.25. Turning to WNME, the enrichment ratio was at most 0.25.

For HYMW, the enrichment ratio is at most 0.25.

Consider FDKA, for which the enrichment ratio was at most 0.25. As for IFSG, the enrichment ratio was at most 0.25.

As to IELK, the enrichment ratio was at most 0.25. YPNL: the enrichment ratio is at most 0.25. Take VLAS: the enrichment ratio is at most 0.25. In the case of QLAF, the enrichment ratio is at most 0.25. The same measure for HDAH: at most 0.25; for IQAQ: 0.98; for MGCR: at most 0.25.

Take SSPA: the enrichment ratio was at most 0.25. In the case of TQLE it was 4.93. As to WGCW, the enrichment ratio was at most 0.25. In the case of THGF, the enrichment ratio amounted to 8.21. With MIFA, the enrichment ratio is at most 0.25. With TVGI, the enrichment ratio stood at 7.34. Regarding LKQE, the enrichment ratio is at most 0.25. In the case of QLIR, the enrichment ratio is at most 0.25. The same measure for QNMQ: at most 0.25. Take WALD: the enrichment ratio was at most 0.25. FGIP: the enrichment ratio is at most 0.25.

As for FMGI, the enrichment ratio was at most 0.25. As to RCQV, the enrichment ratio is at most 0.25. RVIQ: the enrichment ratio is at most 0.25.

Take VHGV: the enrichment ratio was at most 0.25.

Take ITQI: the enrichment ratio is at most 0.25.

Regarding NSFM, the enrichment ratio is at most 0.25. Consider QGVI, for which the enrichment ratio is at most 0.25. Consider GACF, for which the enrichment ratio is at most 0.25.

In the case of YDLV, the enrichment ratio is at most 0.25. As to MKSQ, the enrichment ratio was at most 0.25. In the case of VNKE it was at most 0.25; in that of RYLY, at most 0.25.

Consider PEGG, for which the enrichment ratio is at most 0.25. For QFRR, the enrichment ratio was at most 0.25. GCMR: the enrichment ratio was at most 0.25. Turning to YMTI, the enrichment ratio was at most 0.25. With THFY, the enrichment ratio was at most 0.25. As for LDGK, the enrichment ratio is at most 0.25. Take RISM: the enrichment ratio was at most 0.25. Regarding WDEA, the enrichment ratio is at most 0.25.

For YSVP, the enrichment ratio is at most 0.25.

Consider VIGT, for which the enrichment ratio was at most 0.25. Consider EKCL, for which the enrichment ratio is at most 0.25. For QMFG, the enrichment ratio was at most 0.25. In the case of NKGP it was at most 0.25; in that of YKGV, at most 0.25. Regarding AHGP, the enrichment ratio was at most 0.25. As for ITVP, the enrichment ratio was at most 0.25. SNDT: the enrichment ratio was at most 0.25. The same measure for RHIR: at most 0.25; for KRWN: at most 0.25. The same measure for ESPV: at most 0.25; for MVFT: at most 0.25; for GEYM: at most 0.25. The same measure for ILRN: at most 0.25; for SEVV: 13.1. Regarding NSRK, the enrichment ratio is at most 0.25.

For the variant KKWP, the enrichment ratio was at most 0.25.

As for GVSA, the enrichment ratio is at most 0.25. As for EQVA, the enrichment ratio is at most 0.25.

ETVL: the enrichment ratio is at most 0.25.

Take FFAL: the enrichment ratio is at most 0.25. For VGYT, the enrichment ratio is at most 0.25. Take AQMY: the enrichment ratio is at most 0.25. In the case of GEHQ it was at most 0.25.

TSCM: the enrichment ratio worked out at 25.8. In the case of GYQG it was at most 0.25. Consider YQLE, for which the enrichment ratio came to 2.6. In the case of DVAE it was at most 0.25; in that of MGAD, at most 0.25; in that of TWWS, at most 0.25.

In the case of GDPA, the enrichment ratio is at most 0.25.

As to SIKQ, the enrichment ratio was at most 0.25. Turning to GSQI, the enrichment ratio is at most 0.25.

With VCMK, the enrichment ratio is at most 0.25.

For the variant QYHY, the enrichment ratio was at most 0.25. On to KSMQ, for which the enrichment ratio is at most 0.25. For the variant MPLK, the enrichment ratio was at most 0.25. Take DVGC: the enrichment ratio was at most 0.25. On to GQIL, for which the enrichment ratio amounted to 4.32. In the case of EQLR, the enrichment ratio was at most 0.25.

Consider EARV, for which the enrichment ratio is at most 0.25. For IKTC, the enrichment ratio was at most 0.25. As for QGLY, the enrichment ratio is at most 0.25. The same measure for QRKS: at most 0.25; for VQGH: at most 0.25; for NNEH: at most 0.25. Turning to LNQL, the enrichment ratio is at most 0.25. Take QPIF: the enrichment ratio is at most 0.25. In the case of KSCS it was at most 0.25; in that of GEFP, at most 0.25; in that of WNSD, at most 0.25.

Take GIVP: the enrichment ratio is at most 0.25. In the case of RMSR, the enrichment ratio was at most 0.25. In the case of LIAV it was at most 0.25. As for KNWY, the enrichment ratio was at most 0.25. In the case of MGTN, the enrichment ratio was at most 0.25.

Turning to QSNE, the enrichment ratio is at most 0.25.

With PTRH, the enrichment ratio was at most 0.25.

As to HHKF, the enrichment ratio was at most 0.25.

Regarding QGFF, the enrichment ratio was 13.9. In the case of RTGV it was at most 0.25; in that of PSYP, at most 0.25. For the variant EINL, the enrichment ratio is at most 0.25. As to YVML, the enrichment ratio was 0.518. Regarding KMMH, the enrichment ratio is at most 0.25. The same measure for RALW: at most 0.25; for TGPQ: at most 0.25. KFHF: the enrichment ratio is at most 0.25.

RAKV: the enrichment ratio was at most 0.25.

As for HQMA, the enrichment ratio was at most 0.25.

Consider QHHE, for which the enrichment ratio was at most 0.25.

Consider DYSS, for which the enrichment ratio was at most 0.25. As for YTNR, the enrichment ratio was at most 0.25. As for VYCI, the enrichment ratio is at most 0.25. For the variant HFHF, the enrichment ratio was at most 0.25.

Regarding ICQK, the enrichment ratio was at most 0.25. On to CSCS, for which the enrichment ratio was at most 0.25. Regarding PWNR, the enrichment ratio was at most 0.25. For the variant MRSA, the enrichment ratio was at most 0.25. As to SRFF, the enrichment ratio is at most 0.25. The same measure for NGTN: at most 0.25. Regarding VWFE, the enrichment ratio was at most 0.25.

As for HPSA, the enrichment ratio was at most 0.25.

As to DNRI, the enrichment ratio was at most 0.25. As to GKWP, the enrichment ratio was at most 0.25. Consider CIVM, for which the enrichment ratio was at most 0.25. Turning to HQMP, the enrichment ratio is at most 0.25.

Regarding GTLK, the enrichment ratio was at most 0.25. Consider FETC, for which the enrichment ratio was at most 0.25.

For AQAF, the enrichment ratio is 0.843. In the case of FGIM, the enrichment ratio was 4.76. As to LPKS, the enrichment ratio was at most 0.25. In the case of DHFG it was at most 0.25. WRFF: the enrichment ratio is at most 0.25. As for QLRP, the enrichment ratio is at most 0.25.

On to KAQV, for which the enrichment ratio is at most 0.25.

Take ARTV: the enrichment ratio was at most 0.25. With RKSQ, the enrichment ratio is at most 0.25. For TYSI, the enrichment ratio was found to be 0.296. For the variant HAMW, the enrichment ratio is at most 0.25.

As to DNTP, the enrichment ratio was at most 0.25. HVLQ: the enrichment ratio was at most 0.25.

Regarding PKVV, the enrichment ratio was at most 0.25. For the variant RISI, the enrichment ratio was at most 0.25. For the variant DCTQ, the enrichment ratio is at most 0.25. As for NFKS, the enrichment ratio was at most 0.25. The same measure for ICWN: at most 0.25. Turning to HDTY, the enrichment ratio is at most 0.25. On to SGFW, for which the enrichment ratio is at most 0.25.

On to GFIG, for which the enrichment ratio was at most 0.25. Take DAQI: the enrichment ratio is at most 0.25.

Take KVTH: the enrichment ratio is at most 0.25. PNPD: the enrichment ratio was at most 0.25.
